Test results reported in paper PMC4336329 (PLoS ONE, 2015).
Out of some 310,000 compounds screened, about 14,000 (4.5%) showed an effect of 50% or more. The effect is printed as a negative number. The list shows a part of the results.

target: human ether-à-go-go-related gene (hERG) potassium channel (human, UniProt Q12809); assay: primary screen, population patch clamp on CHO cells stably expressing hERG
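Further: peak tail current of the secondary pulse compared with the same well before compound.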

Chain of human ether-à-go-go-related gene (hERG) potassium channel (Q12809 whole entry, looked up): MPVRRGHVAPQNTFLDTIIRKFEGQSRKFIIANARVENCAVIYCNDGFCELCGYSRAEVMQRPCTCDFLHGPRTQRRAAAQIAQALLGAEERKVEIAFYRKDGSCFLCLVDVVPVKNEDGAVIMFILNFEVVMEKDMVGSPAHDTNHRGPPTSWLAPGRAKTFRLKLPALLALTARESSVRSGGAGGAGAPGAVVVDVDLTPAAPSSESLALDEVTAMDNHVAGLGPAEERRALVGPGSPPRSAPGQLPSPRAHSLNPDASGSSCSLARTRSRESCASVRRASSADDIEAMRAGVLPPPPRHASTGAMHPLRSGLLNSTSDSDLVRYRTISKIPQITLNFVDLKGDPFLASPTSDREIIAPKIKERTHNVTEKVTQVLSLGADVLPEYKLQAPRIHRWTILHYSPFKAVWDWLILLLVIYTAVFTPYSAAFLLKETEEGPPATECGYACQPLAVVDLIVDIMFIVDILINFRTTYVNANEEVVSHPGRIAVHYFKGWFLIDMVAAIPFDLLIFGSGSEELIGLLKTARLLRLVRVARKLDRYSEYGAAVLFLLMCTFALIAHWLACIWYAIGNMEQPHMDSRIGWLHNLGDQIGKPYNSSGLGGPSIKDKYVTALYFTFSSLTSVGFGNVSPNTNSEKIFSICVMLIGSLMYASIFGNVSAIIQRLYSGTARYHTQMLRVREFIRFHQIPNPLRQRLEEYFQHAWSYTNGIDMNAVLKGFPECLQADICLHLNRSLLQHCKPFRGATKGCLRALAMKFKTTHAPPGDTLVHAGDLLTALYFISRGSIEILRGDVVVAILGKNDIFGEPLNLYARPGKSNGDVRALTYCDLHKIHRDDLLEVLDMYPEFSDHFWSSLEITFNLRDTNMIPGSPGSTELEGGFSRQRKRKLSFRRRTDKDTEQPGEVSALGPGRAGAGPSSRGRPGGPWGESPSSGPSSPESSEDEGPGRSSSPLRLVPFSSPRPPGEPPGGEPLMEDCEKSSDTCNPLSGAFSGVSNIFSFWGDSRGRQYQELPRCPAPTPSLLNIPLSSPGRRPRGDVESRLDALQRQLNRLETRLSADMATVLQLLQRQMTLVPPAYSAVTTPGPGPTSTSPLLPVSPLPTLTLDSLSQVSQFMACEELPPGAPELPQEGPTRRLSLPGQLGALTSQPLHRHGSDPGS

| SMILES | hERG current change (%, negative = inhibition) at 10uM |
| --- | --- |
| COc1ccc(/C=C2\C(=O)NC(=S)N2C(=O)c2ccc(F)cc2)cc1 | 4.05% |
| N#CC1(NC(=O)COC(=O)c2ccccc2SCC(=O)N2CCCC2)CCCCC1 | -0.58% |
| O=C1C2C3C=CC(C3)C2C(=O)N1CNc1ccccn1 (centres unmarked) | 1.53% |
| C=C(C(=O)c1ccccc1)C(c1ccccc1)C(C)C(=O)c1ccccc1 (centres unmarked) | 6.55% |
| NC(=O)c1c(C(F)(F)F)cc(-c2ccccc2)nc1NCCO | 9.65% |
| O=C(N/N=C/c1cc([N+](=O)[O-])ccc1Cl)c1cnccn1 | 10.2% |
| O=C(Nc1ccc(-c2nnc3n2CCCCC3)cc1)c1ccco1 | 5.26% |
| COCc1c(Br)c(C)nc(OCC(=O)N/N=C/c2ccco2)c1C#N | -19.4% |
| Cc1nc(NC(=O)CCCC(=O)Nc2nc(C)c(C)s2)sc1C | -1.66% |
| CC(NC(=O)c1cccc(S(=O)(=O)N2CCCCCC2)c1)c1ccccc1 (centres unmarked) | -58.2% |
| Cc1noc(C)c1C(=O)Nc1nc(-c2cccs2)cs1 | -56.9% |
| COc1cccc(/C=N/NC(=S)NC2CC3CCC2C3)c1OC (centres unmarked) | 14.4% |
| Cc1c(C(=O)O)oc2ccc(S(=O)(=O)NCc3ccccc3)cc12 | 0.477% |
| COC(=O)c1cc(OC)c(OC)cc1NC(=O)CN1CCCCC1 | -2.84% |
| COc1c(C)cccc1C(=O)Nc1ccc(N2CCN(S(C)(=O)=O)CC2)cc1 | 5.12% |
| CC(C)C[C@H](NC(=O)c1[nH]cnc1C(=O)N[C@H](C)c1ccccc1)C(=O)OC(C)(C)C | -4.32% |
| O=C(Cn1c(=O)c2cccn2c2cccnc21)N1CCN(c2ccccc2F)CC1 | 1.79% |
| CSCC[C@H](NC(=O)Cc1c(C)c2cc3c4c(oc3cc2oc1=O)CCCC4)C(=O)O | 11.4% |
| O=[N+]([O-])c1ccc(N2CCCCCC2)c(S(=O)(=O)N2CCCCC2)c1 | -6.85% |
| O=C(/C=C\Nc1ccccn1)c1ccc(Cl)cc1 | 5.83% |
| Cc1cc(C)c(NC(=O)CNC(=O)COC(=O)CNC(=O)c2ccc(Cl)cc2Cl)c(C)c1 | 13.3% |
| CN(C)c1ccnc(Oc2ccc(Cl)cc2)c1C#N | -2.31% |

| SMILES | hERG current change (%, negative = inhibition) at 10uM |
| --- | --- |
| COc1ccc(COC(=O)C2=C(C)NC(=O)NC2c2ccc(OC)cc2)cc1 (centres unmarked) | 14.4% |
| Cc1ccc(S(=O)(=O)NC2(C(=O)O)CCCCC2)cc1 | 4.84% |
| O=C(O)c1cccc(NC(=S)NCc2ccccc2)c1 | 18.8% |
| Cc1ccc(S(=O)(=O)N2CCC3(CC2)OCCO3)cc1 | 7.41% |
| COc1ccc(/C=N\NC(=O)C2=NNC(=O)C2C)cc1 (centres unmarked) | 9.52% |
| COc1ccccc1C(=O)N(CN1CCCC1=O)c1cccc(Cl)c1 | -9.61% |
| O=C(N=C1SC2CS(=O)(=O)CC2N1c1ccc(F)cc1)C1CCCCC1 (centres unmarked) | 10.1% |
| O=C(N/N=C/c1ccc(Cl)s1)c1ccccc1[N+](=O)[O-] | -4.42% |
| O=C(COC(=O)c1cc(-c2ccc(Cl)s2)nc2ccccc12)NCc1ccco1 | -7.28% |
| CCOC(=O)NN1C(=O)c2ccccc2NC1(C)C | 4.93% |
| COc1ccc(/C=C2\CCC(C3CCCC3)C2=O)cc1OC (centres unmarked) | 13.2% |
| CC(NC(=O)c1ccccc1Cl)NC(=O)c1ccccc1Cl | 6.85% |
| O=C(CSc1nnc(Nc2ccccc2)s1)NCc1cccs1 | 22% |
| C/C(N)=C(/C#N)C(=O)CSc1nnc(-c2ccccc2)n1C | 13.1% |
| Cc1ccc(-c2nnc(NCCCO)c3ccccc23)cc1 | -38.5% |
| CC(C)Cn1c2c(c(O)c(C(=O)Nc3nc4ccccc4s3)c1=O)CCCC2 | 8.7% |
| Cc1ccc2oc(=O)c3cc(C(=O)NCCCN4C(C)CCCC4C)sc3c2c1 (centres unmarked) | -61.6% |
| CCc1ccc(NC(=O)Cn2c3[n+](c4c(F)c(F)ccc42)CCCCC3)cc1.[I-] | 11.4% |
| CC(=O)Nc1ccc(NC(=O)CN2C(=O)COc3ccc(S(=O)(=O)N4CCCCC4)cc32)cc1 | 0.668% |
| O=C(NCCCN1CCCC1=O)c1cccc(S(=O)(=O)N2CCCCC2)c1 | -5.62% |
| O=C(CC1OC(=O)c2ccccc21)Nc1cccc(S(=O)(=O)N2CCCCCC2)c1 (centres unmarked) | -48% |
| O=C(NCCOc1ccccc1)C1CCC(=O)N(CCCN2CCOCC2)C1 (centres unmarked) | 12.7% |
